Data: PMC4336329 (PLoS ONE, 2015)
The campaign covered roughly 310,000 compounds. About 2,200 (0.71%) showed an effect of 50% or more. The effect is printed as a negative number. The list shows a part of the results.

Molecular target: human ether-à-go-go-related gene (hERG) potassium channel (human, UniProt Q12809)
Test: primary screen, population patch clamp on CHO cells stably expressing hERG

Sequence of human ether-à-go-go-related gene (hERG) potassium channel (Q12809 whole entry, looked up): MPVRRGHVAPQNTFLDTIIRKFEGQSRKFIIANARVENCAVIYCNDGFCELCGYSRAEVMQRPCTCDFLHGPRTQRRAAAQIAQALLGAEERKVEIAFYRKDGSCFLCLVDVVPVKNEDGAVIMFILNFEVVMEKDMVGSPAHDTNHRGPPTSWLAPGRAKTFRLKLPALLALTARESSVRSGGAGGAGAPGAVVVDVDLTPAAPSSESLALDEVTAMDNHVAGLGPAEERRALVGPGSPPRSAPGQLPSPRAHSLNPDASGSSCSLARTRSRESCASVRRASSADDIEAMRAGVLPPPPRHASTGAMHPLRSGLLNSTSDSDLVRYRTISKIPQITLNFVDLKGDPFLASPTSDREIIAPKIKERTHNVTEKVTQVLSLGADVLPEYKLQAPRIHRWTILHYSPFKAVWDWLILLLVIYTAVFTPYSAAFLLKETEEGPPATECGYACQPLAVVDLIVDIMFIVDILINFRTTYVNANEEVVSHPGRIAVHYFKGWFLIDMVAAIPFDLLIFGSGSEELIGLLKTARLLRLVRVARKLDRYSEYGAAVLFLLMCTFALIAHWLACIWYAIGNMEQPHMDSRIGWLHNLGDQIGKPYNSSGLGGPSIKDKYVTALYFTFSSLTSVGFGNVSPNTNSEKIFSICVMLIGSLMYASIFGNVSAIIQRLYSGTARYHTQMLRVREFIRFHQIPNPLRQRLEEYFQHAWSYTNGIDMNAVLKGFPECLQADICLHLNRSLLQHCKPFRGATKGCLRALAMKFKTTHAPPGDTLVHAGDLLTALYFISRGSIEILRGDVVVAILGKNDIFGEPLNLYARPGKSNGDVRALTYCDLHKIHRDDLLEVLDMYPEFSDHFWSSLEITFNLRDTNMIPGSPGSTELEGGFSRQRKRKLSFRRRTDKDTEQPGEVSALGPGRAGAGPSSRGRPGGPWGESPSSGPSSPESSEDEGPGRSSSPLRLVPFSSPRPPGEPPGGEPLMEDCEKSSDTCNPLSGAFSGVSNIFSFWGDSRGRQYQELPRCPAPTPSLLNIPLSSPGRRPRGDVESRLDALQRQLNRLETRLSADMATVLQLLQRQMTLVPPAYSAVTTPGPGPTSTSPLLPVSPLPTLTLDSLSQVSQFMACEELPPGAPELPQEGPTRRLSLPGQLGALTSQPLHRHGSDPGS

Compound | hERG current change (%, negative = inhibition) at 1uM
Fc1ccccc1Nc1nc(-c2ccncc2)nc2ccccc12 | 2.59%
Cc1ccc(NC(=O)COC(=O)Cc2ccsc2)c(C)c1 | 2.91%
COc1cc(CN(CCN(C)C)Cc2ccccc2)ccc1OCc1ccccc1.O=C(O)C(=O)O | 6.51%
CCOc1ccc(NS(=O)(=O)c2ccc(OCC)c3ncccc23)cc1 | 2.13%
C=CCOc1ccc(/C=C/C(=O)OCC(=O)N2CCC(c3ccccc3)=N2)cc1 | 9.5%
COc1cccc(/C=C2\CC(C)Cc3c2nc2ccccc2c3C(=O)O)c1OC (stereo not drawn) | 15.7%
COc1ccc(NC2(C#N)CCCCC2)cc1 | 2.84%
COC(=O)c1[nH]c2ccccc2c1NC(=O)C(C)N1CC(C)OC(C)C1 (stereo not drawn) | 10.2%
CC(C)CCOP(=O)(c1ccc(N(C)C)cc1)C(O)c1ccc(Cl)cc1Cl (stereo not drawn) | 11.9%
CCN(CC)C(=O)CSc1nnc(CSc2ncccn2)n1C | -1.28%
CN1C(=O)C(CC(=O)NC2CCCCC2)SC1=Nc1ccccc1 (stereo not drawn) | -16.7%
CN(C)C=O.Cc1ccc2nc(SCC(=O)c3c(N)n(C)c(=O)n(C)c3=O)[nH]c2c1 | -3.28%
NS(=O)(=O)c1ccc(CCNC(=O)c2ccco2)cc1 | -0.54%
COc1ccnc(Oc2ccccc2)c1C(=O)N/C=N/OCc1ccccc1F | -6.16%
CC(C)N(C(=O)c1sc2cc([N+](=O)[O-])ccc2c1Cl)C(C)C | -0.873%
COc1ccc(/C=C2\SC(=O)N(CCNC(=O)CCS(=O)(=O)c3ccc(C)cc3)C2=O)cc1 | 14.5%
COc1ccc(N(CC(=O)Nc2nc3ccc(C)cc3s2)S(=O)(=O)c2c(C)nn(C)c2C)cc1 | 9.07%
COc1ccc(NC(=O)CSc2nn3c(=O)c(C)nnc3s2)cc1 | 13.5%
O=[N+]([O-])c1ccc(CSC2=NCCS2)cc1 | -0.335%
CC1=C(C(=O)OCc2ccccc2)C(c2ccccc2Cl)NC(=O)N1C (stereo not drawn) | 9.79%
CC1=NN(c2ccccc2)C(=O)C1/C=C1/NC(=S)NC1=O (stereo not drawn) | 14.2%
CCCCn1c(N)c(N(CCC(C)C)C(=O)c2ccc3ccccc3c2)c(=O)[nH]c1=O | 22%
CC(NCCc1ccc(S(N)(=O)=O)cc1)C(=O)NCc1ccccc1.O=C(O)C(=O)O (stereo not drawn) | -8.15%
CCOC(=O)C1=C(C)N(CC(C)C)C(=O)/C1=C\c1ccc(OCC(=O)Nc2ccccc2)cc1 | 11.8%
NC(=O)c1cc([N+](=O)[O-])c(Cl)cc1NCc1ccccn1 | 10.5%
CCCCN(CCCNC(=O)CN1C(=O)COc2ccc(S(=O)(=O)N3CCC(C)CC3)cc21)Cc1ccccc1 | -12.6%
CC(C)(C)NC(=O)NCc1ccco1 | 9.27%

Compound | hERG current change (%, negative = inhibition) at 1uM
CCN(CC)S(=O)(=O)c1cc(NC(=O)CO/N=C(\N)c2ccccc2Cl)ccc1C | -0.373%
Cc1ccc(Nc2ncccc2C(=O)O)cc1C | 13.9%
Cc1cc(C)c2nc(N3CCCC(C(=O)NC4CCCC4)C3)sc2c1 (stereo not drawn) | 16.1%
COc1ccc(C(=O)NCC(=O)OCC(=O)NCc2cccs2)cc1 | 13.3%
CCOc1cc(C)c(C(C)C)cc1S(=O)(=O)N1CC(C)OC(C)C1 (stereo not drawn) | 6.68%
Cc1c(NC(=O)CSc2ncnc3c2cnn3-c2ccccc2)c(=O)n(-c2ccccc2)n1C | -26%
COc1ccc(-n2nc3c(c2NC(=O)C2CC2)CS(=O)C3)cc1 (stereo not drawn) | 10.2%
CCN1CCN(Cc2c(C(=O)N/N=C(\C)c3ccc(Cl)c(Cl)c3)nnn2-c2nonc2N)CC1.Cl | 4.17%
CN(C)S(=O)(=O)c1ccc(-c2csc(N/N=C/c3ccc(O)cc3)n2)cc1 | 4.54%
Cl.Fc1ccc(CN2C3=NCCN3c3ccccc32)cc1 | -17.6%
Nc1cccc2c1C(=O)N(CCOc1ccccc1F)C2=O | 19.2%
O=C(NCC1CCCO1)C1CC(=O)N(c2ccc(F)c(Cl)c2)C1 (stereo not drawn) | 11.8%
O=C(CCN1C(=O)[C@@H]2Cc3ccccc3CN2C1=O)N[C@H](C(=O)O)c1ccccc1 | 20.4%
Cc1ccc(C(=O)OCC(=O)c2ccc(S(=O)(=O)N3CCCCC3)cc2)o1 | -1.15%
CCN(CC(=O)NCc1ccc(Cl)cc1)C(=O)c1oc2ccccc2c1C | -3.13%
CC1CCN(c2ccc3nnc(CCC(=O)NCC(C)c4ccccc4)n3n2)CC1 (stereo not drawn) | -1.42%
O=C(CSc1ccccc1)Nc1cccc(S(=O)(=O)N2CCOCC2)c1 | 2.3%
O=C(Cc1c(F)cccc1Cl)Nc1nccs1 | 12.5%
Cn1c(C(=O)NCc2ccco2)cc2c(=O)[nH]c3ccccc3c21 | 16.6%
O=C(Nc1ccc(S(=O)(=O)N2CCCCC2)cc1)C1CCCO1 (stereo not drawn) | 8.08%
Cc1ccc(N/N=C2\COC(C)(C)CC2=O)cc1 | 8.74%
C=CC1C(OC2OC(CO)C(O)C(O)C2O)OC=C(C(=O)OC)C1CC1CC(=O)CC(CC(=O)CCc2ccc(O)cc2)O1 (stereo not drawn) | 7.61%
CCCCC(Sc1nc(N)c(NC(=O)c2ccc(OC)cc2)c(=O)[nH]1)C(=O)O (stereo not drawn) | 11.2%
O=C(c1cccc(C(=O)N2CCN(c3ccccc3F)CC2)c1)N1CCN(c2ccccc2F)CC1 | -1.98%
CC(C)NC(=O)/C(=C\c1cccc([N+](=O)[O-])c1)NC(=O)c1ccccc1 | -7.27%
CCN(C1CCS(=O)(=O)C1)S(=O)(=O)c1cccc([N+](=O)[O-])c1 (stereo not drawn) | 1.52%
CC(=O)/C(=N\Nc1ccccc1)Sc1cccc2cccnc12 | 1.5%
